Out of some 48,000 compounds screened, about 1,200 (2.5%) were called active. Another 2% or so got no clear call; they are omitted.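 The calls were made as follows: active = activation of at least 60% and not above a set upper limit (about 1 call in 100 departs from these limits); inconclusive = activation of 40% to 60%, or above that upper limit; inactive = activation under 40%.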 The list shows a part of the results.
The compounds below were run against Probable G-protein coupled receptor 32 (Homo sapiens) (UniProt O75388) (assay: qHTS for Agonists of Human Resolvin D1 Receptor DRV1). Details: CHO-K1 GPR32 beta-arrestin PathHunter luminescence, 90 min; at 76.9 µM; hits give high values; zero percent set by DMSO-only wells.
How it was run: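 Using DMSO wells as EC0, agonist-induced signal was taken as chemiluminescence from beta-Gal reconstituted upon beta-arrestin recruitment to GPR32 in CHO-K1 cells after 90 min compound treatment.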
Also: 0% is about no effect.

Chain of UniProt O75388 (O75388 whole entry, looked up): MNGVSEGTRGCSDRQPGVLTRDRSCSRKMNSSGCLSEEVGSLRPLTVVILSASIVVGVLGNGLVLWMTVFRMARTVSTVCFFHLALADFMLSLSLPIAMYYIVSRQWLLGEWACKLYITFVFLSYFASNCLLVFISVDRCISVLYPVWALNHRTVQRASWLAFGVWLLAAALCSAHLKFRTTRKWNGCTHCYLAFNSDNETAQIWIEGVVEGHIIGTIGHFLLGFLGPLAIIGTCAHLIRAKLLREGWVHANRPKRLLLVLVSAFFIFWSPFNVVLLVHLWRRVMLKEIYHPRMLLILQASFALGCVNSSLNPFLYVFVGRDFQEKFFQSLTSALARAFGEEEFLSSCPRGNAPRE

activation, inactive:
CCOc1ccccc1-c1noc(CSc2nnc(-c3ccccc3)n2-c2ccc(F)cc2)n1 -11%
Nc1c(C(=O)Nc2ccc(OC(F)(F)F)cc2)sc2nc(-c3ccncc3)ccc12 -20%
Cc1nn2c(=O)cc(COC(=O)Cc3ccccc3)nc2s1 -11.2%
COC(=O)c1c(NC(=O)c2nc(SCc3ccc(F)cc3)ncc2Cl)sc2c1CCCC2 -2.52%
Cn1nnnc1SCCCNCc1cc(Cl)ccc1OCc1ccc(F)cc1 18.1%
CC(C)NCCCC1(C(N)=O)c2ccccc2-c2ccccc21 -29%
CCNC(=O)/C=C/c1cccc(Br)c1 -18.2%
CCC1CN(C(=O)N2CCC(C(=O)Nc3ccccc3F)CC2)c2ccccc2O1 (stereo not given) -11.6%
Cc1ccc(C)c(N2CCN(c3c(CN4CCCC4)c(=O)oc4ccccc34)CC2)c1 -57.6%
COc1ccccc1CNC(=O)c1ccc2nc(N3CCCCC3)sc2c1 6.23%
COc1ccc(NC(=O)CN2C(=O)COc3ccc(S(=O)(=O)N4CCCCCC4)cc32)cc1 -20.8%
Cc1ccc(CCNC(=O)c2ccc3c(Cl)c4c(nc3c2)CCCC4)cc1 36.8%
CCCC(=O)Nc1ccccc1OCc1cc(=O)n2cc(C)ccc2n1 -5.3%
Cc1ccc(-n2c(=O)cc(N3CCN(c4ccccc4Cl)CC3)[nH]c2=O)cc1 1.97%
O=C(Nc1cccc(Cl)c1Cl)c1cc(S(=O)(=O)NCc2ccc3c(c2)OCO3)ccc1F 40.9%
O=c1[nH]c(=O)n(C2CCCCC2)c(O)c1C1=Nc2ccccc2SC(c2ccccc2)C1 (stereo not given) -3.51%
COc1ccc(OCC(=O)NCC(c2ccc(OC)cc2)N2CCCCC2)cc1 (stereo not given) 0.752%
COc1ccc(C2C(C(=O)Nc3cccnc3)=C(C)Nc3nc(-c4ccccc4)nn32)cc1OC (stereo not given) -32.1%
Cc1cccc(OCC(=O)N(Cc2ccc(C(C)(C)C)cc2)Cc2ccco2)c1 -4.17%
COc1ccccc1NC(=O)C1=C(C)Nc2nc(SCc3ccccc3Cl)nn2C1c1ccccn1 (stereo not given) 0.737%
CN(C)c1ccc(/C=C/c2noc(-c3ccccc3O)n2)cc1 0.753%
C[C@@H]1C(=O)NC2=Nc3cccc(Cl)c3CN21 -2.89%
O=c1c2ccccc2n2c(-c3ccc(Cl)cc3)nnc2n1CCc1ccccc1 8.45%
Cc1ccc(C(c2cccc(Br)c2)c2c(C)[nH]c3ccccc23)s1 (stereo not given) -40.8%
COc1cc(OC)cc(C(=O)N2CCN(C(=O)COc3ccccc3)CC2)c1 7.92%
CC(C)c1ccc(NC(=O)C(C)N(c2ccccc2)S(C)(=O)=O)cc1 (stereo not given) 37.1%
CSc1ccc(CCNS(=O)(=O)c2ccc3c(c2)C(C)(C)C(=O)N3C)cc1 -3.99%
CC(C)C(NS(=O)(=O)c1ccc2c(c1)oc(=O)n2C)C(=O)NCCc1ccccc1 (stereo not given) -7.51%
COc1cc(OC)c(NC(=O)N2CC3CCCN3c3ccccc32)cc1Cl (stereo not given) -14.2%
COc1ccc(-c2nc(CSc3nnc(C)n4c3cc3occc34)c(C)o2)cc1OC -18.7%
CCc1ccc(-n2nc(C)c3c(C)cc(=O)n(CC(=O)Nc4ccc(C(C)=O)cc4)c32)cc1 -5.23%
Cc1ccc(C)c(CN2C(=O)c3ccccc3S(=O)(=O)c3ccc(C(=O)NCCCN4CCCC(C)C4)cc32)c1 (stereo not given) -18.3%
O=C(Cn1ncc2c3ccccc3n(Cc3ccc(F)cc3)c2c1=O)NCCC1=CCCCC1 -6.2%
Cc1nn(C(=O)c2ccc(Cl)cc2)c(C)c1S(=O)(=O)N1CCOCC1 16.4%
Cc1c(C(=O)Nc2ccc(C(C)C)cc2)sc2nc3n(c(=O)c12)CCC3 5.84%
CCC(CC)c1nn2c(=O)cc(COc3ccc(NC(=O)c4ccc(C)cc4)cc3)nc2s1 46.8%
Cc1ccc(CNc2ncnc3c2nnn3C)cc1 -4.97%
Cc1cn2c(=O)cc(COC(=O)c3cccc(NC(=O)c4ccccc4Cl)c3)nc2s1 -9.57%
CCc1ccc(CNC(=O)CN2C(=O)CSc3c2c(C)nn3-c2ccccc2)cc1 -25.7%
COc1ccc(NC(=O)CC2C(=O)N(c3cccc(C)c3)C(=O)N2Cc2cccnc2)cc1 (stereo not given) -2.78%
O=C(Nc1ccc(F)c(Cl)c1)N1CC=C(c2c[nH]c3ccccc23)CC1 -2.41%
CC(C)CCNC(=O)c1cc2cc(S(=O)(=O)N3CCCCC3)ccc2n1C 14.7%
Cn1c(=O)oc2cc(S(=O)(=O)N3CCCC(C(=O)NCc4ccc(F)cc4)C3)ccc21 (stereo not given) 12.7%
CCC(=O)N1c2ccccc2CC1C(=O)NCCc1ccccc1 (stereo not given) 7.12%
O=C(NC1CCN(CCc2c[nH]c3ccccc23)CC1)c1ccccc1 7.49%
O=C(NCCc1ccccc1Cl)c1sc2ncccc2c1-n1cccc1 1.35%
COc1cccc(Cn2nnc3c(=O)[nH]c(C4CCN(C(=O)c5ccccc5Cl)CC4)nc32)c1 -22.5%
Cc1ccc(N2CCN(C(=O)c3cnc(N4CCCCC4)c4ccccc34)CC2)c(C)c1 -44.4%
COc1ccc(CNC(=O)CCCN2C(=O)COc3ccc(C)cc32)cc1 -17.1%
CSc1ncc(Cl)c(C(=O)Nc2c(C(=O)Nc3cccc(Cl)c3)oc3ccccc23)n1 4.87%
CCC(=O)Nc1ccccc1-c1nc2ccccc2n(CC(=O)c2ccc(C)cc2)c1=O -1.86%
O=C(NCc1ccccc1Br)c1cnc2sc(N3CCCCCC3)nn2c1=O -7.3%
CC1=C(C(N)=O)C(c2ccccc2Br)n2ncnc2N1 (stereo not given) 8.51%
COc1cc(OC)c(NC(=O)CCCn2nc(C)c3c(C)n(-c4ccccc4)nc3c2=O)cc1Cl -10.7%
CCOC(=O)c1ccc(NC(=O)CSc2c3c(nc4cc(Cl)ccc24)CCCC3)cc1 -15.4%

From PubChem BioAssay AID1346428 (National Center for Advancing Translational Sciences (NCATS), 2018)
